Here are results for 90 compounds from paper PMC4336329 (PLoS ONE, 2015).

About 2,200 (0.71%) of roughly 310,000 compounds showed an effect of 50% or more. The effect is printed as a negative number. The list shows a part of the results.

Chain of human ether-à-go-go-related gene (hERG) potassium channel (Q12809 whole entry, looked up): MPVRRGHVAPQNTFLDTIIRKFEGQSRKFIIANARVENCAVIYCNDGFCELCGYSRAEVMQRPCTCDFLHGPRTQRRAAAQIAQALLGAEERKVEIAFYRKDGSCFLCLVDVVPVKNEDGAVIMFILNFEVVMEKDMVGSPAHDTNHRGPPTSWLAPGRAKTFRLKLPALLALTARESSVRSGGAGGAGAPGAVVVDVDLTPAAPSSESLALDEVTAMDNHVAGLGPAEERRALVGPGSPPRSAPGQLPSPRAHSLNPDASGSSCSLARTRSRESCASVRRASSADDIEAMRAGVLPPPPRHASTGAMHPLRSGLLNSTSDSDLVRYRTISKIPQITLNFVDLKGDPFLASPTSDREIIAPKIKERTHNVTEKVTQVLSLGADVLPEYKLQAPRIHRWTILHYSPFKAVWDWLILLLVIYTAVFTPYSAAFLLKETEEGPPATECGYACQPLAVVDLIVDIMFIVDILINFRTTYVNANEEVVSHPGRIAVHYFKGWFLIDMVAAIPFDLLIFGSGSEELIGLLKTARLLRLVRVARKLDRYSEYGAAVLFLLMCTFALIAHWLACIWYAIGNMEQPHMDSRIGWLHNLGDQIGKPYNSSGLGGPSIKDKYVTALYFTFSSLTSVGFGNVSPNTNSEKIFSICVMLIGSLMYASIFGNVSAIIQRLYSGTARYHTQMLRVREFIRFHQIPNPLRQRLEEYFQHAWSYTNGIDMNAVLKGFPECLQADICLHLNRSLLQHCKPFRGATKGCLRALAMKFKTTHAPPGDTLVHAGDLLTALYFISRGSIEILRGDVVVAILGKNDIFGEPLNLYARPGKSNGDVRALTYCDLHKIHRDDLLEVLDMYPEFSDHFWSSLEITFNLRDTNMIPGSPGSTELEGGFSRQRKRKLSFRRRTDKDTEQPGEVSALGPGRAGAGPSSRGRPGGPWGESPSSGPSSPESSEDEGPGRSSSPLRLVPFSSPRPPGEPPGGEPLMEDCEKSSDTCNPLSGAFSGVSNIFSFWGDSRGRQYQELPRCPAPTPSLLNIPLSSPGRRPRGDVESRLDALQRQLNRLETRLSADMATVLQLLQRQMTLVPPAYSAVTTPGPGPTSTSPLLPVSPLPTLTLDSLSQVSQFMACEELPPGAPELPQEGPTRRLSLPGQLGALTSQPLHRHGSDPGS

This assay concerns the target human ether-à-go-go-related gene (hERG) potassium channel (human, UniProt Q12809). As to the kind of experiment: primary screen, population patch clamp on CHO cells stably expressing hERG.
For the compound `COC(=O)C1Cc2ccccc2CN1S(=O)(=O)c1ccc(F)cc1` (stereo not drawn), the “hERG current change (%, negative = inhibition) at 1uM” value was 11.9%. For `O=C(NCC1CCCO1)c1ccc(NC(=O)c2ccc([N+](=O)[O-])cc2)cc1` (stereo not drawn), the “hERG current change (%, negative = inhibition) at 1uM” value is 14.3%. With `CSC1=NC2(C)CCCCC2C12C=CC(=O)C=C2` (stereo not drawn) the figure was 11.8%; with `CN(Cc1c(F)cccc1Cl)C(=O)c1ccc(COc2ccccc2)cc1`, 14.7%.

As for `O=C1NC(=O)c2cc(NC(=O)C3COc4ccccc4O3)ccc21` (stereo not drawn), the “hERG current change (%, negative = inhibition) at 1uM” value is 12%.

As to `COc1cnn(-c2ccc(C)cc2)c(=O)c1Cl`, the “hERG current change (%, negative = inhibition) at 1uM” value stood at 10.3%. `Cc1c(Br)c(C(F)(F)F)nn1CC(=O)N1CCCC1`: the “hERG current change (%, negative = inhibition) at 1uM” value came out at 0.474%.

Regarding `CCOC(=O)c1cccc(NC(=O)C2CCC(CNc3c(N4CCOCC4)c(=O)c3=O)CC2)c1` (stereo not drawn), the “hERG current change (%, negative = inhibition) at 1uM” value worked out at 12.1%.

Turning to `O=c1cc(CSc2n[nH]c(=O)n2C2CC2)c2ccc(O)cc2o1`, the “hERG current change (%, negative = inhibition) at 1uM” value worked out at 12.8%. Under `COc1cccc2cc(C(=O)OC(C)C(=O)c3ccc(C)cc3)c(=O)oc12` (stereo not drawn) stands 10.9%. On to `CCc1ccc(CNCc2ccc(OCC(O)CN(C)Cc3ccccc3)cc2)nc1` (stereo not drawn), for which the “hERG current change (%, negative = inhibition) at 1uM” value is on record as 8.23%.

As to `CCC1COC(c2cccn2Cc2ccccc2Cl)=N1` (stereo not drawn), the “hERG current change (%, negative = inhibition) at 1uM” value came to 6.34%. With `CN(C)C(=S)NC(=NCc1ccc([N+](=O)[O-])cc1)c1ccccc1` the figure was -60.3%; with `COc1cc(OC)c2c(-c3ccccc3)cc(=O)oc2c1C(CC(=O)N1CCN(c2ccccc2)CC1)c1ccc(N(C)C)cc1` (stereo not drawn), 17.1%.

Take `CCOc1cccc(C(=O)NC2=NCCS2)c1`: the “hERG current change (%, negative = inhibition) at 1uM” value is on record as 9.09%. For the compound `Clc1ccc(Oc2nc3c(Cl)cccc3s2)cc1Cl`, the “hERG current change (%, negative = inhibition) at 1uM” value is recorded as 11.7%. With `COC(=O)c1ccc(N=NN2CCCCC2)cc1`, the “hERG current change (%, negative = inhibition) at 1uM” value came out at 8.68%. On to `O=c1[nH]c2ccccc2cc1CN(CC1CCCO1)S(=O)(=O)c1ccccc1` (stereo not drawn), for which the “hERG current change (%, negative = inhibition) at 1uM” value is listed as -1.55%. With `CC1CCN(S(=O)(=O)N2CCC(C(=O)NCCc3ccccc3)CC2)CC1` the figure was 5.12%; with `Cc1cccc(NC(=O)CN(CCc2ccccc2)S(C)(=O)=O)c1`, 14.1%. Consider `O=c1oc2c(-c3cccc(F)c3)cc(O)cc2s1`, for which the “hERG current change (%, negative = inhibition) at 1uM” value stood at 3.43%. As for `Cn1c(=NC(=O)CS(=O)(=O)c2ccc(F)cc2)sc2ccccc21`, the “hERG current change (%, negative = inhibition) at 1uM” value was 7.07%. For `CCn1c(SCC(=O)NC2CCCC2)nnc1C(C)NC(=O)c1ccccc1Br` (stereo not drawn), the “hERG current change (%, negative = inhibition) at 1uM” value was determined as 24.6%. In the case of `COC(=O)c1ccc(Nc2c([N+](=O)[O-])c(=O)oc3ccccc23)cc1`, the “hERG current change (%, negative = inhibition) at 1uM” value is 14.6%. On to `COc1ccccc1C(=O)N1CCN(Cc2c[nH]c3ccccc23)CC1.O=C(O)C(=O)O`, for which the “hERG current change (%, negative = inhibition) at 1uM” value is -6.71%. For `COc1cc(C)c(S(=O)(=O)NOCc2ccccc2)c(C)c1C`, the “hERG current change (%, negative = inhibition) at 1uM” value came to 10%. In the case of `CCC1CCCCN1C(=O)Nc1cc(Cl)ccc1OC` (stereo not drawn), the “hERG current change (%, negative = inhibition) at 1uM” value is given as 15.2%. Under `CCOC(=O)Cn1nc(C)c(NC(=O)COc2ccc([N+](=O)[O-])c(C)c2)c1C` stands 4.27%. Under `CCCN(CC(=O)Nc1ccccc1C)C(=O)C1CCN(C(=O)Nc2ccccc2)CC1` stands -6.26%; under `CC1(C)CC(=O)c2sc(NC(=O)C(C)(C)C)nc2C1`, -3.76%; under `CC(NC(=O)CNC(=O)C1CCCCC1)c1ccc(S(N)(=O)=O)cc1` (stereo not drawn), 14.9%. With `Cc1ccc(C(=O)CCC(=O)N2CCN(c3ccccc3O)CC2)cc1` the figure was 11.7%; with `Cn1cccc1Cc1nnc(SCC(=O)NC2CCCC2)n1-c1ccc(F)cc1`, 1.97%; with `O=C(Nc1ccc(S(=O)(=O)Nc2ncccn2)cc1)c1ccc(Br)o1`, 3.65%.

As to `CCOc1ccc2c(c1)C(C)=CC(C)(C)N2S(=O)(=O)c1ccc(NC(C)=O)cc1`, the “hERG current change (%, negative = inhibition) at 1uM” value is 11.6%. With `CC(C)Oc1ccc(C(=O)Nc2ccc(NC(=O)c3ccco3)c(Cl)c2)cc1` the figure was 8.44%; with `Cc1ccc(-n2c(O)c(/C=N/n3cnnc3)c3ccccc3c2=O)cc1` [14745934], 9.28%. As to `COc1ccc(Cn2c(=O)oc3ccccc32)cc1F`, the “hERG current change (%, negative = inhibition) at 1uM” value turned out to be 13.5%.

With `CCOC(=O)CC1COc2ccccc2N1C(=O)c1ccc(C)cc1` (stereo not drawn), the “hERG current change (%, negative = inhibition) at 1uM” value is given as 7.32%. Under `O=C(NCCO)/C(=C/c1ccc2c(c1)OCO2)NC(=O)c1ccc(Br)cc1` stands -27.9%; under `Cc1ccc(CNC(=O)CCn2ccc3cc(S(=O)(=O)N4CCCC4)ccc32)cc1`, 11.1%; under `COc1ccc(N2CCN(c3ccc(C(=O)O)cc3[N+](=O)[O-])CC2)cc1`, 13.8%. With `C=CCNC(=O)N1CCC(n2nccc2NC(=O)CCc2ccccc2)CC1`, the “hERG current change (%, negative = inhibition) at 1uM” value is recorded as 16.6%. As for `COc1ccc(NCc2nc3ccccc3n2C)cc1`, the “hERG current change (%, negative = inhibition) at 1uM” value turned out to be 3.96%. For `O=C(Oc1ccccc1C(=O)N1CCOCC1)c1ccc(F)cc1`, the “hERG current change (%, negative = inhibition) at 1uM” value is on record as 10.1%. Under `COc1cc2cc(C(c3nnnn3C3CCCC3)N3CCCCCC3)c(=O)[nH]c2cc1OC` (stereo not drawn) stands -3.59%. Under `O=C(c1ccc2c(c1)OCO2)N1CCCC(c2ccccc2)C1` (stereo not drawn) stands 7.47%. With `Cc1ccc(C(=O)N2CCCC(CCC(=O)N3CCN(c4ccccn4)CC3)C2)cc1` (stereo not drawn) the figure was 15.9%; with `COCCCNS(=O)(=O)c1ccc2c(c1)OCCO2`, 5.7%; with `COc1ccc(CC(=O)Nc2c3c(nn2C(C)(C)C)CS(=O)C3)cc1` (stereo not drawn), 10%. Turning to `CCC1CCCCN1Cc1ccc(OC)c(C)c1C` (stereo not drawn), the “hERG current change (%, negative = inhibition) at 1uM” value was found to be 0.813%. With `COc1ccc(NC(=O)Nc2ccc(F)cc2)c(C)c1` the figure was 10.3%; with `Cc1noc(C)c1COC(=O)c1cc(S(=O)(=O)N2CCOCC2)ccc1F`, 8.81%; with `COc1ccc(CS(=O)(=O)CC(C)(O)c2ccccc2)cc1` (stereo not drawn), 8.48%. With `COc1cc(Cn2c(=O)oc3ccc(C)cc32)ccc1OC(C)C` the figure was 3.97%; with `COc1ccc(CNC(=O)c2nnn(Cc3ccc(OC)cc3)c2N)cc1`, 10.8%; with `CCOc1ccccc1C(=O)Nc1ccccc1-c1ccccc1`, 13%. With `CC1CCCN(C/C=C/c2ccccc2[N+](=O)[O-])C1` (stereo not drawn) the figure was 0.0822%; with `COC(=O)c1cc(-c2ccc(Br)cc2)on1`, 8.21%; with `CC1(c2ccc(Cl)cc2Cl)OCC(Cn2cncn2)O1.O=[N+]([O-])O` (stereo not drawn), 9.62%. With `O=C(N[C@H]1CCC(=O)N(CCSc2ccc(Br)cc2)CC1)OCc1ccccc1`, the “hERG current change (%, negative = inhibition) at 1uM” value turned out to be 5.59%. With `Nc1ncc([N+](=O)[O-])c(Oc2ccccc2F)n1` the figure was 7.68%; with `COc1ccc(Cl)cc1N(CC(=O)Nc1cccc(SC)c1)S(C)(=O)=O`, 2.67%. With `O=C(Oc1nsnc1N1CCOCC1)c1ccccc1` the figure was 6.03%; with `O=C1NC(=S)N/C1=C\c1cccc([N+](=O)[O-])c1`, 16.1%; with `COc1cc(/C=N/NC(=O)c2cc(-c3ccccc3)nc3ccccc23)cc(OC)c1O`, 13.5%. With `CCOc1ccc(S(=O)(=O)NCCC(=O)NCC(c2ccc(F)cc2)N2CCOCC2)cc1` (stereo not drawn) the figure was -2.14%; with `Cc1ccc(CN2CCSCC2)c(C)c1`, 20.2%; with `COc1ccc(/C=C/C(=O)NC(=S)N2CCCC(C(N)=O)C2)cc1` (stereo not drawn), 15.2%. With `CCCN(CC(=O)Nc1ccccc1OC)C(=O)CCC(=O)c1ccc(OCC)cc1`, the “hERG current change (%, negative = inhibition) at 1uM” value was -3.38%. Regarding `CCOC(=O)CSc1nn(-c2ccccc2)c(=S)s1`, the “hERG current change (%, negative = inhibition) at 1uM” value worked out at 11.1%.

As to `CC(CN1CCCC1)OC(=O)c1ccccc1Cl.Cl` (stereo not drawn), the “hERG current change (%, negative = inhibition) at 1uM” value is listed as 11.7%.

Turning to `O=C(COC(=O)c1ccc(O)cc1O)Nc1ncc(Cl)cc1Cl`, the “hERG current change (%, negative = inhibition) at 1uM” value was determined as 1.61%.

`Cc1nn(-c2ccccc2)c(C)c1C(=O)OCC(=O)N(C)c1ccccc1`: the “hERG current change (%, negative = inhibition) at 1uM” value stood at 13.8%. Under `CCOc1cc(/C=C(\C#N)c2nc(-c3cccs3)c(NC(C)=O)s2)ccc1O` stands -2.22%; under `Cc1ccc(C)c(S(=O)(=O)N2CCC(c3nc4c(nnn4Cc4ccc5c(c4)OCCO5)c(=O)[nH]3)CC2)c1`, 11.3%; under `CS(=O)(=O)c1ccc(N)c(SSc2cc(S(C)(=O)=O)ccc2N)c1`, 5.39%. `Clc1ccc(Cn2cnc3ccccc32)cc1`: the “hERG current change (%, negative = inhibition) at 1uM” value is recorded as 12.5%. Under `c1ccc(N2N=C(c3cccs3)CC2c2ccco2)cc1` (stereo not drawn) stands 10.2%. With `CCn1cc([N+](=O)[O-])c(C(=O)Nc2ccn(C34CC5CC(CC(C5)C3)C4)n2)n1` the figure was 12.5%; with `O=C(c1cccc(NS(=O)(=O)c2ccc(Br)cc2)c1)N1CCCCC1`, 4.34%.

For `O=C(NC(=S)NCc1ccccc1)c1cccc(Cl)c1`, the “hERG current change (%, negative = inhibition) at 1uM” value came out at 12.3%. In the case of `O=C(COC(=O)c1cccnc1Cl)NCCCc1ccccc1`, the “hERG current change (%, negative = inhibition) at 1uM” value is 7.26%. Consider `O=C(Nc1ccc(Cl)c(Cl)c1)OCc1cncs1`, for which the “hERG current change (%, negative = inhibition) at 1uM” value was -8.72%. Under `O=C(CSc1n[nH]c(-c2cc(Cl)ccc2Cl)n1)NCCN1C(=O)CSC1=O` stands 13.1%; under `O=C(COc1ccc(Cl)cc1)N1CCCCCCC1`, 9.48%. On to `O=C1CSC(c2cccnc2)N1Cc1ccc(Cl)cc1` (stereo not drawn), for which the “hERG current change (%, negative = inhibition) at 1uM” value worked out at 9.82%.

Turning to `CCCCCC(=O)NNC(=S)NC(=O)c1cccc([N+](=O)[O-])c1`, the “hERG current change (%, negative = inhibition) at 1uM” value came to 17.3%. For `Cc1cc(C)n(/N=C/c2cc(Cl)cc(Cl)c2O)c(=O)c1`, the “hERG current change (%, negative = inhibition) at 1uM” value stood at 14%. In the case of `Cc1ccc(SCC(=O)NC2CCS(=O)(=O)C2)cc1C` (stereo not drawn), the “hERG current change (%, negative = inhibition) at 1uM” value is listed as 8.74%.
